# In the supplement of paper PMC9135407:
# Values joined by “and” are separate entries in the source; they are usually repeats but may differ in a detail not shown here. Equal values may be shown once. Where a name gives a salt, the structure may show the parent alone. Screen size: about 5,800 compounds; about 620 (11%) showed activity.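 Rule for the calls: active = score above a cut-off or among the top three wells of a plate; in these data no inactive exceeds 0.85.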 The list shows a part of the results, in another mix than the full data.
# System: primary human hepatic stellate cells (donor 1)
# Assay: scaled lipid accumulation score (0 = DMSO-like, 1 = nortriptyline-like); higher = stronger HSC inactivation (lipid re-accumulation), active = hit call of the paper
# Settings: 48 h
# [1] = library stock concentration: 10 mM
# [2] = library stock concentration: 3.33 mM
smiles,measurement,setting,value
COc1cc(C(=O)OC2CC3CCC(C2)N3C)ccc1O (stereo unspecified) [Fillalbin],scaled lipid accumulation score,,inactive: ≤ 0
"NCC(CC(=O)O)c1ccc(Cl)cc1 (racemic) [Baclofen (R,S)]",scaled lipid accumulation score,,inactive: ≤ 0
N[C@@H]1C[C@H]1c1ccccc1 [Tranylcypromine hydrochloride],scaled lipid accumulation score,,inactive: 0.103
same,scaled lipid accumulation score,[1],inactive: ≤ 0 and inactive: 0.046
N[C@@H]1C[C@H]1c1ccccc1 [Tranylcypromine (2-PCPA) HCl],scaled lipid accumulation score,[2],inactive: ≤ 0
same,scaled lipid accumulation score,[1],inactive: ≤ -0.001
CN[C@@H](C)[C@@H](O)c1ccccc1 [Pseudoephedrine hydrochloride],scaled lipid accumulation score,library stock concentration: 9.9 mM,inactive: ≤ 0
same,scaled lipid accumulation score,[1],inactive: ≤ 0
C[C@@H]1O[C@@H](O[C@H]2CC[C@]3(C=O)[C@H]4CC[C@]5(C)[C@@H](C6=CC(=O)OC6)CC[C@]5(O)[C@@H]4CC[C@]3(O)C2)[C@H](O)[C@H](O)[C@H]1O [Convallatoxin],scaled lipid accumulation score,[1],inactive: 0.656
CCCCC/C=C\C/C=C\CCCCCCCC(=O)NCCO [Linoleoyl Ethanolamide],scaled lipid accumulation score,library stock concentration: 1 mM,inactive: 0.001
O=C(O)C1=CCCN(CCOC(c2ccc(C(F)(F)F)cc2)c2ccc(C(F)(F)F)cc2)C1 [CI 966 hydrochloride],scaled lipid accumulation score,[1],inactive: ≤ -0.006
CN1[C@@H]2C[C@@H](OC(=O)[C@H](CO)c3ccccc3)C[C@H]1[C@@H]1O[C@@H]12 [(-)-Scopolamine hydrobromide],scaled lipid accumulation score,[1],inactive: ≤ 0
CN1[C@@H]2C[C@@H](OC(=O)[C@H](CO)c3ccccc3)C[C@H]1[C@@H]1O[C@@H]12 [Scopolamine hydrobromide],scaled lipid accumulation score,library stock concentration: 5.2 mM,inactive: ≤ 0
same,scaled lipid accumulation score,[1],inactive: ≤ 0 and inactive: 0.04
CN1[C@@H]2C[C@@H](OC(=O)[C@H](CO)c3ccccc3)C[C@H]1[C@@H]1O[C@@H]12 [Scopolamine HBr],scaled lipid accumulation score,[2],inactive: ≤ 0
same,scaled lipid accumulation score,library stock concentration: 6.6 mM,inactive: ≤ 0
same,scaled lipid accumulation score,[1],inactive: ≤ 0
CN1[C@@H]2C[C@@H](OC(=O)[C@H](CO)c3ccccc3)C[C@H]1[C@@H]1O[C@@H]12 [Scopolamine hydrochloride],scaled lipid accumulation score,,inactive: ≤ 0
Cc1sc2ccccc2c1CC1=NCCN1 [Benazoline oxalate],scaled lipid accumulation score,[1],inactive: 0.663
CC[C@@H]1C=CC=CC[C@H](C)[C@@H](O)[C@@H](C)C(=O)[C@H](C)[C@@H](O)[C@H](C)C(=O)[C@H](C)[C@@H](O)[C@H](C)C=CC(=O)O[C@H]2[C@@H](C)[C@@H](CC1)O[C@@]1(CC[C@@H](C)[C@@H](C[C@H](C)O)O1)[C@@H]2C,scaled lipid accumulation score,[1],inactive: ≤ 0
CN(C)CCc1ccc(O)cc1 [Hordenine],scaled lipid accumulation score,[2],inactive: ≤ 0
same,scaled lipid accumulation score,[1],inactive: ≤ 0
NC1=NC(=O)C(c2ccccc2)O1 (stereo unspecified) [Pemoline],scaled lipid accumulation score,[1],inactive: ≤ 0
CCOC(=O)C1(c2ccccc2)CCN(CCC(C#N)(c2ccccc2)c2ccccc2)CC1,scaled lipid accumulation score,[1],inactive: ≤ 0
C[C@]12CC[C@H](O)C[C@H]1CC[C@@H]1[C@@H]2C[C@@H](O)[C@]2(C)[C@@H](C3=CC(=O)OC3)CC[C@]12O [Digoxigenin],scaled lipid accumulation score,,active: 0.991
C/C(=C\c1csc(C)n1)[C@@H]1C[C@@H]2O[C@@H]2CCC[C@H](C)[C@H](O)[C@@H](C)C(=O)C(C)(C)[C@@H](O)CC(=O)O1 [Epothilone A],scaled lipid accumulation score,[2],inactive: ≤ 0
same,scaled lipid accumulation score,[1],inactive: ≤ 0
CCCCC/C=C\C/C=C\C/C=C\C=C\[C@H](CCCC(=O)O)OO,scaled lipid accumulation score,library stock concentration: 100 uM,inactive: ≤ -0.021
COC1=C[C@@H]2[C@@H]3Cc4ccc(OC)c(O)c4[C@]2(CCN3C)CC1=O [Sinomenine],scaled lipid accumulation score,[2],inactive: ≤ 0
same,scaled lipid accumulation score,[1],inactive: ≤ 0
COP(=O)(OC)OC=C(Cl)Cl [Dichlorvos],scaled lipid accumulation score,library stock concentration: 9.1 mM,inactive: 0.057
S=C=NCc1ccccc1 [Benzyl isothiocyanate],scaled lipid accumulation score,[1],inactive: ≤ 0
N#CC(C#N)=Cc1ccc(O)c(O)c1 [Tyrphostin 23],scaled lipid accumulation score,[1],inactive: ≤ 0
Cc1cccc(Cc2c[nH]cn2)c1C [Detomidine HCl],scaled lipid accumulation score,[2],inactive: ≤ 0
same,scaled lipid accumulation score,[1],inactive: ≤ 0
CN1CC[C@]2(CCN3CCc4c(oc5ccccc45)[C@@H]3C2)N(C)C1=O,scaled lipid accumulation score,[1],inactive: ≤ -0.055
OC(Cc1ccncc1)C(Cl)(Cl)Cl (stereo unspecified),scaled lipid accumulation score,[1],inactive: ≤ -0.006
CS(=O)(=O)Nc1ccc(Cc2noc(-c3ccc4[nH]cc(CCN)c4c3)n2)cc1,scaled lipid accumulation score,[1],inactive: ≤ 0
Cc1cccc(C)c1NC(=O)CN1CCCC1=O [Nefiracetam],scaled lipid accumulation score,[2],inactive: ≤ 0
same,scaled lipid accumulation score,[1],inactive: ≤ 0 and inactive: ≤ -0.07
C(#CCN1CCCC1)CN1CCCC1 [Tremorine dihydrochloride],scaled lipid accumulation score,,inactive: 0.122
